The source of these data is ChEMBL document CHEMBL4888484, “Replenishing the malaria drug discovery pipeline: Screening and hit evaluation of the MMV Hit Generation Library 1 (HGL1) against asexual blood stage Plasmodium falciparum ,using a nano luciferase reporter read-out” (2022).

Screen size: about 150,000 compounds; about 540 (0.36%) showed an effect of 50% or more. The list shows a part of the results.

The subject of this test is Plasmodium falciparum. In words: Primary screen in NF54 nanoGlo assay, in single point, at 2uM, 72h; a lower Z score goes with more inhibition. It is filed as functional, Erythrocyte. Particulars: timepoint 72 hour.
Regarding `COCCn1ccnc1CN1CC[C@]2(OC)CC[C@@H](OC)C[C@H]12`, the % Inhibition – broadly, the change of the read-out against control, counted positive when it falls – was -18% and the Z score came out at 1.81.

In the case of `Cc1ccc(F)cc1NC(=O)NC(C)(C)COc1ncccc1Br`, the “% Inhibition” value was -7% and the Z score worked out at 0.97.

Consider `CCn1cncc1CN(C)C[C@H](C)N1CCOCC1`, for which the “% Inhibition” value was -7% and the Z score worked out at 1.04.

In the case of `CN1CCCC1C1CCCN1C(=O)c1n[nH]c(=O)c2ccccc12` (stereo not drawn), the “% Inhibition” value is on record as -1% and the Z score is reported as 0.09.

For the compound `O=C(CCn1c(=O)[nH]c2ccccc21)N1CC[C@H](O)[C@@H](O)C1`, the “% Inhibition” value is on record as 1% and the Z score was -0.1.

For the compound `Cc1nn(C)c2nc(-c3ccncc3)nc(N3CCC(=O)NC[C@@H]3C)c12`, the “% Inhibition” value is -2% and the Z score is 0.27.

As to `COC[C@H](C)Oc1ccc(Cl)cc1S(=O)(=O)N1CCc2cnccc21`, the “% Inhibition” value is reported as -14% and the Z score is on record as 1.63.

For `Cc1nnc([C@H](C)N(C)Cc2cnn(-c3ccccc3)c2)o1`, the “% Inhibition” value is listed as -5% and the Z score is 0.86.

Regarding `CCC(CC#N)OC(=O)CC(C)NC(=O)C1CCCC1` (stereo not drawn), the “% Inhibition” value is listed as -15% and the Z score turned out to be 1.9.

In the case of `COc1ccccc1N1CCN(C(=O)C2CN(c3cc(-n4cccn4)ncn3)C2)CC1`, the “% Inhibition” value is on record as 20% and the Z score is given as -2.59.

For `COCC1CN(C(=O)NCCCCN(C)c2ccccc2)C1`, the “% Inhibition” value is on record as -1% and the Z score is given as 0.2.

For the compound `Cc1ncsc1C(=O)NC[C@H](O)c1ccc(Cl)s1`, the “% Inhibition” value is -9% and the Z score was found to be 1.26.

`CCOC(=O)N1CCN(CC2CC3C=CC2C3)CC1` (stereo not drawn): the “% Inhibition” value was found to be 8% and the Z score was -1.26.

On to `CCS(=O)(=O)NC1(C#N)CCCC(C)C1` (stereo not drawn), for which the “% Inhibition” value worked out at 0% and the Z score was 0.01.

Take `Cc1ncn(-c2ccc(CNC(=O)c3ccccc3)cc2)c1C`: the “% Inhibition” value was -3% and the Z score came out at 0.34.

With `COCc1nccc(N2CCC3(CC2)C[C@@H]3C(=O)N2CCCCC2)n1`, the “% Inhibition” value is listed as -4% and the Z score is given as 0.48.

In the case of `O=C(c1nc(N2CCOCC2)ncc1Cl)N1CCCCCC1`, the “% Inhibition” value is given as -13% and the Z score turned out to be 1.36.

Turning to `Cc1nc(N)ncc1C(=O)N1CCN(Cc2ccc3c(c2)OCO3)C(=O)C1`, the “% Inhibition” value is -5% and the Z score worked out at 0.99.

On to `Cc1cnn([C@H]2CCN(C(=O)Nc3ccc(-c4cnn(C)c4)c(C)n3)C2)c1`, for which the “% Inhibition” value is -2% and the Z score is 0.45.

As to `COc1ccccc1-n1nc(Cc2ccccc2)n(CC(=O)N[C@@H](C)C2CC2)c1=O`, the “% Inhibition” value is given as -9% and the Z score turned out to be 1.02.

`Cc1c(Cl)cccc1NC(=O)[C@H](C)NC1CCN(C)CC1`: the “% Inhibition” value is 4% and the Z score was -0.65.

As to `O=c1c2nc(-c3ccc4c(c3)OCO4)cn2ccn1-c1cccc(Cl)c1`, the “% Inhibition” value was -17% and the Z score was 2.2.

For `CC[C@H](NCc1nncn1CC)c1ccc(F)cc1F`, the “% Inhibition” value is recorded as -9% and the Z score is given as 1.2.

On to `O=C(c1cccc(F)c1)N1CCN(Cc2cccc(Oc3ccccc3)c2)CC1`, for which the “% Inhibition” value is given as -10% and the Z score is 1.67.

As to `COc1ccc(-c2nnsc2C(=O)NCC2CC3C=CC2C3)cc1` (stereo not drawn), the “% Inhibition” value is recorded as -8% and the Z score is reported as 1.52.

With `N#C[C@]1(F)CCN(c2nc(-c3ccnc(C(F)(F)F)c3)cs2)C1`, the “% Inhibition” value is -16% and the Z score was 1.85.

Take `COc1ccc(CC(=O)Nc2ccc3ncnc(N4CCCCC4)c3c2)c(Cl)c1`: the “% Inhibition” value was -19% and the Z score is given as 1.83.

With `CCn1cc(C(=O)N2CCO[C@@H](Cc3nc(COC)no3)C2)cn1`, the “% Inhibition” value is given as -9% and the Z score stood at 1.76.

Turning to `CC1CCN(C(=O)c2cc3occc3c(Nc3ccc(F)cc3)n2)CC1`, the “% Inhibition” value is -20% and the Z score worked out at 2.05.

With `O=C(NCCc1cccc(C(F)(F)F)n1)c1ccnc2nn[nH]c12`, the “% Inhibition” value was -3% and the Z score is 0.42.

`COCC1(C(=O)N2CCn3cccc3[C@H]2c2ccccn2)CCC1`: the “% Inhibition” value is recorded as -8% and the Z score is listed as 1.2.

As to `C[C@H]1CCOCCN1C(=O)c1ncnc2sccc12`, the “% Inhibition” value was -3% and the Z score worked out at 0.52.

In the case of `Cc1cc(=O)c(C(=O)N2CCC[C@H](C)C2)c(Cc2cccc(F)c2)n1CCCN1CCOCC1`, the “% Inhibition” value is reported as -5% and the Z score is on record as 0.97.

On to `CCc1ncc(CNC2(CNC(=O)OC(C)(C)C)CCCC2)cn1`, for which the “% Inhibition” value was -12% and the Z score was determined as 1.59.

Regarding `O=C(CCC(=O)Nc1ccc(OCc2ccccc2)cc1)NCc1ccc2c(c1)OCO2`, the “% Inhibition” value was -1% and the Z score was 0.13.

Turning to `CC#CC(=O)N[C@@H](C)CCC1CCCC1`, the “% Inhibition” value is recorded as 0% and the Z score was -0.05.

As to `O=C(N[C@@H](Cc1ccccc1)c1ccccc1F)N1CCN(C(=O)N2CCCC2)CC1`, the “% Inhibition” value is listed as -5% and the Z score turned out to be 0.74.

On to `Cc1cc(CC(=O)NCCc2ccc(C)o2)on1`, for which the “% Inhibition” value is reported as -6% and the Z score stood at 1.28.

Turning to `Cn1ccnc1CN1CCCC12CCN(c1nc3ccccc3s1)CC2`, the “% Inhibition” value is -12% and the Z score came out at 1.14.

Take `COc1ccc([C@@H]2C3=C(O)N(C(C)=O)CC3=Nc3cccc4c3c2cn4C(C)C)c(OC)c1`: the “% Inhibition” value is -3% and the Z score is on record as 0.4.

Consider `O=C(C1CCOC1)N1CCC(F)(c2cccc(C(F)(F)F)c2)C1` (stereo not drawn), for which the “% Inhibition” value amounted to 14% and the Z score is -2.69.

Turning to `CC(c1ccc(F)cc1)N(C)CCS(=O)(=O)CCN(C)C(C)c1ccc(F)cc1` (stereo not drawn), the “% Inhibition” value is 0% and the Z score was 0.04.

For the compound `COc1ccc(CNC(=O)c2c(C)oc3nc(C)nc(N4CCOCC4)c23)cc1`, the “% Inhibition” value is -19% and the Z score is 2.97.

`O=C(N[C@H]1COC[C@H]1NC(=O)c1ccsc1)c1ccsc1`: the “% Inhibition” value was 5% and the Z score is listed as -0.94.

Take `CC1(C)C(C#N)C1(C#N)C(=O)Nc1ccccc1F` (stereo not drawn): the “% Inhibition” value is given as -10% and the Z score was determined as 1.36.

For the compound `Cc1cc(C)c(C(=O)NCc2cc3n(n2)CCN(S(C)(=O)=O)C3)c(C)c1`, the “% Inhibition” value is reported as -13% and the Z score turned out to be 1.32.

As for `CCC(=O)N1CC(C(=O)NCc2ccc3c(c2)OCO3)C(c2ccc(OC)cc2)C1` (stereo not drawn), the “% Inhibition” value is listed as -4% and the Z score turned out to be 0.6.

Consider `Cc1cc(C)cc(OS(=O)(=O)CCN2C(=O)NC3(CCCC3)C2=O)c1`, for which the “% Inhibition” value worked out at 1% and the Z score is on record as -0.14.

Take `O=C(c1cccc(Cl)c1)N1CC2CCC(O)C2C1` (stereo not drawn): the “% Inhibition” value is on record as -5% and the Z score amounted to 0.71.

`O=C1Nc2ccc(Br)cc2C12CCCC2`: the “% Inhibition” value is -3% and the Z score was found to be 0.36.

In the case of `Cc1nnnn1Cc1ccc(C(=O)N2CCc3[nH]nc(C4CCC4)c3C2)cc1`, the “% Inhibition” value is given as -5% and the Z score is listed as 0.83.

Turning to `CC1(C)CN(C(=O)Cc2ccc(C(=O)O)cc2)CC(C)(C)O1`, the “% Inhibition” value is -6% and the Z score stood at 0.73.

For the compound `CC(=O)N1N=C(c2cc(-c3ccc4c5c(cccc35)CC4)n[nH]2)O[C@H]1c1cccc(Cl)c1Cl`, the “% Inhibition” value is reported as -2% and the Z score was determined as 0.46.

With `O=c1cc(-c2noc(CNS(=O)(=O)C3CC3)n2)cc[nH]1`, the “% Inhibition” value is given as -10% and the Z score is on record as 1.64.
